# Results: article PMC4336329 (PLoS ONE, 2015)
# Among all 310,000 compounds or so, about 2,200 (0.71%) showed an effect of 50% or more. The effect is printed as a negative number. The list shows a part of the results.
# Biological target: human ether-à-go-go-related gene (hERG) potassium channel (human, UniProt Q12809)
# Assay: primary screen, population patch clamp on CHO cells stably expressing hERG
# human ether-à-go-go-related gene (hERG) potassium channel, sequence (Q12809 whole entry, looked up): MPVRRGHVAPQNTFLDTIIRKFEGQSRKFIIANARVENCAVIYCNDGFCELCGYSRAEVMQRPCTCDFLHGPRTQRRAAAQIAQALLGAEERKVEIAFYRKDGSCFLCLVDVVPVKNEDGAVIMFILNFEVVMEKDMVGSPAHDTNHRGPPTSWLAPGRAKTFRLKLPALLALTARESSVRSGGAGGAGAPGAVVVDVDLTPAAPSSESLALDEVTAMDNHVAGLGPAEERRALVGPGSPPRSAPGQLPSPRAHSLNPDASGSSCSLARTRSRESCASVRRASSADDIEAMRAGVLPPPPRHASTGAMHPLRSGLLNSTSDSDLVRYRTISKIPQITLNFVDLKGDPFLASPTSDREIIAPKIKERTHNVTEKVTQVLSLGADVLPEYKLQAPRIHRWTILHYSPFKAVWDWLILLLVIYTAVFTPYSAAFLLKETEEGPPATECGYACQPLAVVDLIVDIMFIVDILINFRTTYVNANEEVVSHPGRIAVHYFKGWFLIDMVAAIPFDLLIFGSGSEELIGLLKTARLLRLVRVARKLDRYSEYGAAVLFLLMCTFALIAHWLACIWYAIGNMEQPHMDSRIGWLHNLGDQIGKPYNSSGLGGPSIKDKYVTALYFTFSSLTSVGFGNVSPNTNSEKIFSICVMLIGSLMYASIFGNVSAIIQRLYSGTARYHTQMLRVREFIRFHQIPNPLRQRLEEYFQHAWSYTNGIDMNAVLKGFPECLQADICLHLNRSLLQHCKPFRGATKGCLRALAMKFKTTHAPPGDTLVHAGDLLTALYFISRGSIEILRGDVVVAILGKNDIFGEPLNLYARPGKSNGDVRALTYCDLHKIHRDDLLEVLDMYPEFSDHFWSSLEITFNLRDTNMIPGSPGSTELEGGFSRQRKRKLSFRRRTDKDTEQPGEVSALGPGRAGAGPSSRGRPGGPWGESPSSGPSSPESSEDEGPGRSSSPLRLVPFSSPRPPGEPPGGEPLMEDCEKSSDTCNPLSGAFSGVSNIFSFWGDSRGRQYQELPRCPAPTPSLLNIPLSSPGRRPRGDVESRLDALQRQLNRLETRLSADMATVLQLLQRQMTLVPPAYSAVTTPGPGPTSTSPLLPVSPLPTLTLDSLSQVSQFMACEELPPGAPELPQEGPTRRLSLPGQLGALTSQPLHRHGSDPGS
row,Structure (SMILES),"hERG current change (%, negative = inhibition) at 1uM"
1,COC(=O)C1=C(C)Nc2c(c(=O)n(C)c(=O)n2C)C1c1ccc(Cl)cc1 (stereo not drawn),-5.21%
2,COc1cc(OC)cc(C(=O)NCC(=O)OCc2nc3ccccc3s2)c1,12.5%
3,CCOC(=O)C1=C(COC(=O)Cc2ccc(OC)c(OC)c2)NC(=O)NC1C (stereo not drawn),6.7%
4,COc1ccc2c(c1)C(=O)N(c1ccc(C)cc1C)C(=O)C2,12.7%
5,CCOc1cc(C2C(C#N)=C(N)Oc3n[nH]c(CC)c32)ccc1OCCN1CCOCC1 (stereo not drawn),8.96%
6,CCOC(=O)c1c(C)c[nH]c1C,15.3%
7,CSc1nsc2nc(=O)c(/C=C3\C=Nc4ccccc43)c(N)n12,5.08%
8,Cc1ccc(C2NS(=O)(=O)N=C2N)cc1 (stereo not drawn),-2.29%
9,COc1ccc(NC(=O)CN2C(=O)C(C)SC(C)C2=O)c(OC)c1 (stereo not drawn),7.69%
10,CCNc1nc(NC(C)(C)C)nc(N2CCCC2)n1,2.82%
11,COc1ccc(OC)c(NC(=O)c2cccc(NC(=O)c3ccccc3C(=O)O)c2)c1,11.1%
12,Brc1ccc(CNc2ccc3ncccc3c2)cc1,12.9%
13,O=C1O[C@@H]([C@H](O)CO)C(O)=C1O,9.37%
14,CCCNC(=O)C1CCN(c2cc(-c3ccccc3)nc3ncnn23)CC1,-65.6%
15,O=C1C=C(c2ccc(-c3ccccc3)cc2)C[C@@H](c2ccc3c(c2)OCO3)C1,-0.902%
16,O=C1C=C(c2ccccc2)OC(=O)C1C(=O)c1ccccc1 (stereo not drawn),16.5%
17,CC(C)OC(=O)c1cc2c(=O)[nH]c(C(Cl)(Cl)Cl)nc2o1,6.63%
18,O=C(c1cc([N+](=O)[O-])cc([N+](=O)[O-])c1)N1CCOCC1,14.4%
19,CCCC(NC(=S)NCC1CCCO1)C12CC3CC(CC(C3)C1)C2 (stereo not drawn),8.67%
20,O=C(NCC1CCCO1)C1CCCN(c2ncccn2)C1 (stereo not drawn),19.4%
21,O=C(O)C(=O)O.Oc1ccccc1CN1CCN(C(c2ccccc2)c2ccccc2)CC1,14.7%
22,CCC(=O)Nc1nnc(C(C)(C)C)s1,23%
23,CC(NC(=O)CNC(=O)c1ccccc1F)c1ccc(-n2ccnc2)cc1 (stereo not drawn),-14.2%

row,Structure (SMILES),"hERG current change (%, negative = inhibition) at 1uM"
1,CCCCCCCCCCCC(=O)NC(C(=O)O)C(O)c1ccccc1 (stereo not drawn),8.03%
2,O=C(Cn1c(C(F)(F)F)nc2ccccc21)N1CCCC1,0.741%
3,O=C1CCCC2=C1C(c1cccc(O)c1)C1=C(N2)c2ccccc2C1=O (stereo not drawn),8.43%
4,CN(C)c1nc2c(c(=O)[nH]c(=O)n2C)n1CCOc1ccccc1,17.1%
5,O=C(NCc1ccco1)c1cnn2c1NC(c1ccccc1)CC2C(F)(F)F (stereo not drawn),1.09%
6,O=C(CCNC(=O)c1ccc(Cl)cc1)Nc1ccc(Cl)cc1F,11.1%
7,CCN(CC)S(=O)(=O)c1ccc(C(=O)OCCN2C(=O)CCC2=O)cc1,0.401%
8,CCOC(=O)N1CCN(C(=O)C2CCN(S(=O)(=O)c3ccc(Cl)cc3)CC2)CC1,-22.3%
9,O=C(O)c1cc2nc3c(c(C(F)(F)F)n2n1)CCc1ccccc1-3,9.66%
10,CCOC(=O)c1sc(NC(=O)C(CC)Sc2nccn2C)nc1C (stereo not drawn),6.94%
11,Cc1ccc(-c2nnn(CC(=O)N(CCN3CCOCC3)C(C(=O)NC3CCCC3)c3ccncc3)n2)o1 (stereo not drawn),0.175%
12,O=C(CSc1nncs1)NC(=O)NCc1ccco1,16.8%
13,CCOC(=O)C1=C(c2ccccc2)N=C2SCC(=O)N2C1c1ccc(OCC)c(OCC)c1 (stereo not drawn),9.14%
14,COc1ccccc1C(=O)Nc1ccnn1C1CCN(Cc2cnn(C)c2)CC1,-27%
15,O=C(c1cn(Cc2ccccc2)nc1-c1cccnc1)N1CCN(Cc2ccccc2)CC1,-2.3%
16,O=C(CN1CCC(NC(=O)c2ccccc2F)CC1)NCc1ccc(F)cc1,-5.88%
17,COc1ccc(C(C)=O)cc1COC(=O)Cc1n[nH]c(=O)c2ccccc12,-2.68%
18,O=[N+]([O-])c1cccc(C(O)C23CN4CN(CN(C4)C2)C3)c1 (stereo not drawn),7.23%
19,Cc1ccccc1CC(=O)N1CCN(S(=O)(=O)c2cccs2)CC1,8.12%
20,COc1ccc(NC(=O)C(NC(=O)c2ccccc2)C(C)C)cc1 (stereo not drawn),1.26%
21,CC(NC(=O)COc1ccccc1F)C1CC2CCC1C2 (stereo not drawn),17.5%
22,CC(=O)NCCc1nc2ccccc2n1CCOc1ccc(C)cc1,0.792%
23,COc1ccc(NS(=O)(=O)c2ccc(N3C(=O)CCC3=O)cc2)cc1,10.2%

row,Structure (SMILES),"hERG current change (%, negative = inhibition) at 1uM"
1,COc1ccc(CN(C(=O)c2snc(C(N)=O)c2N)C(C)C(=O)NCc2ccc(F)cc2)cc1 (stereo not drawn),-7.36%
2,Cc1ccn(C(CC(=O)c2ccc(Br)cc2)C(=O)O)n1 (stereo not drawn),4.04%
3,Cc1c(NS(=O)(=O)c2cccs2)c(=O)n(-c2ccccc2)n1C,8.31%
4,COc1ccccc1N1C(=O)CC(Sc2ncccc2C(=O)O)C1=O (stereo not drawn),7.98%
5,CCOC(=O)C1CCN(C(=O)Cc2c(C(=O)O)[nH]c3ccccc23)CC1,5.01%
6,C=CCc1ccc(OCCOCCOc2cccc3cccnc23)c(OC)c1,10.7%
7,CCN1CCN(c2nc(-c3ccccc3)nc3ccccc23)CC1,-30.4%
8,CCCN(CCC)CCNC(=O)c1cc2c(=O)n(CC)c3ccccc3c2s1,8.38%
9,CCN1CCN(CCNC(=O)C2CCN(Cc3nc(-c4ccc(Cl)cc4)oc3C)CC2)CC1,7.22%
10,Cc1cc(C)n(-c2nc3c(c(=O)[nH]c(=O)n3C)n2CCc2ccccc2)n1,-0.649%
11,COC(=O)c1cc(-c2cccs2)nc2ccccc12,7.7%
12,CC(C)C(=O)Nc1ccc(C(=O)NNC(=O)c2ccco2)cc1,7.82%
13,CC(=O)c1cccc(N/C=C\C(=O)c2ccc(C)cc2)c1,15.2%
14,COc1ccc(-n2c(Cn3c(=O)sc4ccccc43)nnc2SCC(N)=O)cc1,10.9%
15,COc1cc(/C=C(\NC(C)=O)C(=O)O)cc(OC)c1OC,11.3%
16,COc1ccccc1N1CCN(C(=O)C2CCN(S(=O)(=O)c3ccc4c(c3)CC(C)N4C(C)=O)CC2)CC1 (stereo not drawn),12.9%
17,CCOc1ccc2ccccc2c1/C=N/NC(=O)c1cc(C)[nH]n1,11.4%
18,O=C(O)c1ccccc1OCCOc1ccccc1C(=O)O,20.4%
19,S=C(NCCc1ccccc1)N1CCN(C2CCCCC2)CC1,-8.38%
20,COC(=O)c1sc2ncn(-n3c(C)ccc3C)c(=O)c2c1C,16%
21,O=C1c2ccccc2C(=O)N1CCCCCCc1ccccc1,11.4%
22,Cc1cc(C)nc(NS(=O)(=O)c2ccc(NC(=O)Cc3ccccc3F)cc2)n1,17.8%
23,Cc1cccc(C)c1NC(=O)Nc1cccs1,13.7%

row,Structure (SMILES),"hERG current change (%, negative = inhibition) at 1uM"
1,O=C(CN(Cc1ccccc1)S(=O)(=O)c1ccc2c(c1)OCCO2)N/N=C/c1ccc(F)cc1,2.99%
2,Cc1cc(Cl)ccc1OCC(=O)Nc1ccccc1CO,14.4%
3,COc1ccc2c(c1OC)C(=O)N1C2SC(C)(C)[C@H]1C(=O)NCC(C)C (stereo partly drawn),16.7%
4,CCOC(=O)c1cccc(NC(=O)COC)c1,13.7%
5,COc1ccc(C2SCC(=O)N2c2nc3ccccc3s2)cc1 (stereo not drawn),10.4%
6,CN(CC(=O)NCc1ccc(F)cc1)Cc1ccc(Br)cc1,2.94%
7,Cc1cc(C)c2[nH]c(=O)c(CN(CC3CCCO3)C(=S)Nc3ccccc3)cc2c1 (stereo not drawn),11.7%
8,CCc1cccc(C)c1NC(=O)CSc1nc(C)c(C)o1,12.5%
9,Cc1cccc(NC(=O)CCN2CCC(C(N)=O)CC2)c1,16.9%
10,COc1ncccc1C(=O)N1CCCC(C(=O)c2cc(F)ccc2F)C1 (stereo not drawn),2.05%
11,Cc1cccc(NC(=O)c2cccc(N3C(=O)CCC3=O)c2)c1,2.55%
12,Cc1ccc2c(c1)CCCN2CC(=O)N(C)c1c(N)n(Cc2ccccc2)c(=O)[nH]c1=O,11.8%
13,CN(Cc1ccccc1)C1=CC(=[N+]2CCCC2)CC(C)(C)C1.[I-],-7.19%
14,Cc1ccc(-n2nnnc2-c2ccco2)cc1,7.04%
15,COc1ccc(-c2ccc3c(c2)S(=O)(=O)c2cccc(C(=O)NC4CCCCC4)c2C3=O)cc1OC,11.4%
16,COC(CNC(=O)C(=O)NCC1CCCN1S(=O)(=O)c1cccs1)OC (stereo not drawn),6.62%
17,Cc1ccccc1C(=O)NCC(=O)OCC(=O)NC(C)C1CC2CCC1C2 (stereo not drawn),1.98%
18,COCCNC(=O)CCc1nc(-c2ccccc2)no1,12.1%
19,COc1ccc(-c2cc(-c3ccc(O)cc3)nc(N)c2C#N)cc1OC,-5.05%
20,CC(OC(=O)Cn1[nH]c(=O)c2ccccc2c1=O)C(=O)Nc1cccc(Cl)c1 (stereo not drawn),-2.87%
21,O=C(COc1ccc2ccc(=O)oc2c1)N1CCN(C(=O)C2COc3ccccc3O2)CC1 (stereo not drawn),0.566%
